Out of some 48,000 compounds screened, about 120 (0.25%) were called active. Roughly 4% stayed inconclusive and do not appear here. The call rests on the fitted dose curve; in most records, active means well fitted activation curve with a large enough effect; inconclusive means small, poorly fitted or top-dose-only effect, or another doubt; inactive means no such curve, though single readings can be large or run the other way. The list shows a part of the results.
Test: Primary qHTS for Identification of Small Molecule Activators of Huntingtin-Antisense Promoter Activity; further: nearly all actives have a fitted effect of over 55% in size
Conditions: HEK293 HTT-AS promoter firefly luciferase reporter (activity 0% = vehicle and -100% = no light), 24 h; series mostly up to 57.5 µM; activity change, positive = activation: at the top concentration
Summary of the method: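 HEK293 luciferase promoter-reporter cells (2,500/well) plated 24 h, then compounds added at up to 57.5 uM final for 24 h at 37 °C. Firefly luminescence by Dual-Glo, normalized to vehicle (0%) and zero RLU (-100%).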

Activity change, positive = activation, inactive:
CCCCNC(=O)CSc1nc2ccccc2nc1Cc1ccc(C)cc1 -5.85%
COc1cccc(CN2C(=O)c3ccccc3Sc3ccc(C(=O)N(C)Cc4ccccc4)cc32)c1 -25.3%
COc1ccc(-c2nnc(SCc3cc(=O)c4cc(C)cc(C)c4[nH]3)n2C)cc1 -52.6%
COc1cccc2cc(-c3nc(Nc4cccc(C)c4)sc3C)c(=O)oc12 -8.41%
O=C(c1cccs1)c1cn(CCOc2ccccc2F)c2ccccc12 -21.4%
CC(C)c1ccc(S(=O)(=O)c2nnn3c2nc(N2CCN(C)CC2)c2sccc23)cc1 -2.89%
COc1cccc(CNC(=O)c2ccc3nc(-c4ccc(F)cc4)c(-c4ccc(F)cc4)nc3c2)c1 -34.4%
COc1cc(C2c3c(-c4ccccc4O)n[nH]c3C(=O)N2CCO)ccc1OCc1ccccc1 (centres undefined) -26.3%
CC(C)CN(C[C@@H](O)[C@H](Cc1ccccc1)NC(=O)O[C@H]1CO[C@H]2OCC[C@H]21)S(=O)(=O)c1ccc(N)cc1 -25%
CCOC(=O)c1ccccc1NC(=O)c1c2c(nc3ccccc13)C(=O)N(C1CCCCC1)C2 6.13%
O=C(CN1C(=O)COc2ccc(S(=O)(=O)N3CCCC3)cc21)N1CCN(c2ccccc2)CC1 -16.1%
COc1ccc2c(Sc3ccccc3)c(C(=O)NCCc3ccc(Cl)cc3)[nH]c2c1 0.682%
O=C(CSc1ncc2c(n1)-c1ccc(Cl)cc1N(Cc1ccccc1)S2(=O)=O)Nc1ccc(F)c(F)c1 -3.26%
CCOC(=O)C1CCCN(CC(=O)N2CCCc3c2c(=O)oc2ccc(OCc4ccccc4)cc32)C1 (centres undefined) 0.331%
CCN1CCN(CCCNC(=O)c2cc3c(s2)-c2ccccc2OC3)CC1 -6.14%
O=C(NCc1ccc2c(c1)CCN2C(=O)c1ccccc1)c1cc2ccccc2[nH]1 -20.5%
CCc1ccc(NC(=O)c2sc3ncnc(N(C)C4CCCCC4)c3c2C)cc1 -6.33%
CCOc1ccc(C2C(C(N)=O)=C(C)Nc3nc(SCc4ccccc4)nn32)cc1 (centres undefined) -15.1%
COc1ccc(CNC(=O)Nc2ccc3c(c2)N(C)C(=O)c2ccccc2S3)cc1 -47.6%
CC(=O)C1=C(c2ccc(C)cc2)N(C(C)=O)n2c(nnc2C2CCCCC2)S1 0.0565%
O=C(COc1ccc(F)cc1)OCc1cc(=O)n2nc(C3CCCCC3)sc2n1 7.81%
Cc1cc(-c2ccc(C)c(S(=O)(=O)NC(c3cccs3)C(C)C)c2)on1 (centres undefined) -42.2%
O=C(NCCS(=O)(=O)N1CCN(c2ccccc2)CC1)C1CC(=O)N(c2ccc(F)cc2)C1 (centres undefined) -13.5%
COc1ccc(NC(=O)CCSc2nc(-c3ccc(OC)cc3)cc(C(F)(F)F)n2)cc1 -12.5%
CCc1nnc(SCc2c(F)cccc2Cl)c2cc3sccc3n12 4.16%
Cc1ccc(NC(=O)Cn2cc(C(=O)C3CC3)c3ccccc32)c(C)c1 -10.2%
CC(C)CCNC(=O)c1ccc2c(c1)NC(=O)C(CS(=O)(=O)Cc1ccc(F)cc1)N2 (centres undefined) -5.86%
CC1=C(C(=O)N2CCN(c3cc(C)ccc3C)CC2)C2(CCC(C)CC2)OC1=O (centres undefined) -21.7%
COc1ccc(C(C(=O)NCc2ccccc2)N(C(=O)Cn2nnc3ccccc32)c2cccc(OC)c2)cc1 (centres undefined) -7.33%
COc1ccc(C(=O)Nc2nc3nc(C)c(Cc4ccccc4)c(=O)n3[nH]2)cc1OC -6.78%
Cc1ccc(CNC(=O)COCc2cc(-c3cccs3)on2)cc1 5.24%
CC1=C(C(=O)Nc2cccnc2)C(c2cccc(Br)c2)n2nc(SCc3ccccc3)nc2N1 (centres undefined) -13.2%
CCOc1ccc(CNC(=O)C2CCN(S(=O)(=O)N3CCC(C)CC3)CC2)cc1OC -19.4%
COc1cc(NC(=O)C2CCN(c3cnc4ccccc4n3)CC2)cc(OC)c1OC -16.4%
CCCc1cc(=O)n2[nH]c(NC(=O)c3ccc(C(C)(C)C)cc3)nc2n1 1.01%
Cc1cccc(CNS(=O)(=O)c2ccc(-c3cnc(C4CC4)o3)cc2)c1 -31.5%
CC(=O)c1cccc(NC(=O)CN2C=NS(=O)(=O)c3ccc(C)cc32)c1 -6.87%
CC1=C(C(=O)Nc2ccccc2C)C(c2ccncc2)n2nc(SCc3ccccc3Cl)nc2N1 (centres undefined) -17.1%
Cc1cccc(-c2noc(-c3ccccc3NC(=O)C3CC(=O)N(c4ccccc4C)C3)n2)c1 (centres undefined) 3.53%
CCn1c(=O)c2cc(C(=O)Nc3cc(OC)c(OC)c(OC)c3)sc2c2ccccc21 -11.7%
Cn1ccc2cc(S(=O)(=O)N3CCCC(C(=O)NCc4ccccc4)C3)ccc21 (centres undefined) -14.4%
Cc1nc(N2CCOCC2)c2c(C(=O)NCc3ccc(Cl)cc3)c(C)oc2n1 -4.09%
Cc1ccc(OCCSc2nc3ccc(NC(=O)c4cccs4)cc3s2)cc1 -22.1%
CN(C)S(=O)(=O)N(CC(=O)Nc1ccc(C(F)(F)F)cc1)c1ccccc1 -18.5%
Cc1ccc(S(=O)(=O)N2CC=C(c3c(C)n(CC(=O)N4CCCC4)c4ccccc34)CC2)cc1C -34%
COCCOCC(OC)OC -0.711%
COc1cc(OC)cc(C(=O)NCCc2csc3nc(-c4ccccc4F)nn23)c1 -11.8%
Cc1sc(-n2cccc2)c(C(C)NC(=O)Nc2cccc(C(F)(F)F)c2)c1C (centres undefined) -46.2%
COc1cccc(CNC(=O)c2cc(-c3ccc(Cl)cc3)n[nH]2)c1 8.06%
O=C(CCC(=O)N1CCSc2ccccc21)Nc1ccc(Cl)cc1 -19.4%
CCC(CC)c1nn2c(=O)cc(COc3ccc(NC(=O)c4cccc(C)c4)cc3)nc2s1 -8.94%
COc1cccc2c1C(=O)c1c(O)c3c(c(O)c1C2=O)C[C@@](O)(C(C)=O)C[C@H]3O[C@H]1C[C@H](N)[C@H](O)[C@H](C)O1 -30.6%
CCOc1cccc(C(=O)N(Cc2ccc(C)o2)C2CCS(=O)(=O)C2)c1 (centres undefined) -13.7%
COc1ccc(CNC(=O)c2ccc3c(c2)N(Cc2cc(C)ccc2C)C(=O)CS3)cc1 -10.4%
COc1ccccc1CNS(=O)(=O)c1cc(Br)cc2c1N(C(=O)C1CC1)CC2 -17%
COc1ccc(CNc2nc(-c3ccc(Cl)cc3)nn2S(=O)(=O)c2ccc(C)cc2)cc1 1.87%
Cc1cc(C)c2sc(NC(=O)c3ccc(S(=O)(=O)N4CCCC4)cc3)nc2c1 -28.5%
CCOc1ccc(NC(=O)C2(c3cccs3)CCOCC2)cc1 -11.4%
CCOC(=O)c1cccc(NC(=O)CCc2nc3cccnc3n2-c2ccccc2)c1 -18.3%

Reference: PubChem BioAssay AID1508624 (National Center for Advancing Translational Sciences (NCATS), 2021)
